Screen size: about 310,000 compounds; about 2,200 (0.71%) showed an effect of 50% or more. Effects have a minus sign here. Some of the results follow.
Biological target: human ether-à-go-go-related gene (hERG) potassium channel (human, UniProt Q12809)
Test: primary screen, population patch clamp on CHO cells stably expressing hERG

human ether-à-go-go-related gene (hERG) potassium channel, sequence (Q12809 whole entry, looked up): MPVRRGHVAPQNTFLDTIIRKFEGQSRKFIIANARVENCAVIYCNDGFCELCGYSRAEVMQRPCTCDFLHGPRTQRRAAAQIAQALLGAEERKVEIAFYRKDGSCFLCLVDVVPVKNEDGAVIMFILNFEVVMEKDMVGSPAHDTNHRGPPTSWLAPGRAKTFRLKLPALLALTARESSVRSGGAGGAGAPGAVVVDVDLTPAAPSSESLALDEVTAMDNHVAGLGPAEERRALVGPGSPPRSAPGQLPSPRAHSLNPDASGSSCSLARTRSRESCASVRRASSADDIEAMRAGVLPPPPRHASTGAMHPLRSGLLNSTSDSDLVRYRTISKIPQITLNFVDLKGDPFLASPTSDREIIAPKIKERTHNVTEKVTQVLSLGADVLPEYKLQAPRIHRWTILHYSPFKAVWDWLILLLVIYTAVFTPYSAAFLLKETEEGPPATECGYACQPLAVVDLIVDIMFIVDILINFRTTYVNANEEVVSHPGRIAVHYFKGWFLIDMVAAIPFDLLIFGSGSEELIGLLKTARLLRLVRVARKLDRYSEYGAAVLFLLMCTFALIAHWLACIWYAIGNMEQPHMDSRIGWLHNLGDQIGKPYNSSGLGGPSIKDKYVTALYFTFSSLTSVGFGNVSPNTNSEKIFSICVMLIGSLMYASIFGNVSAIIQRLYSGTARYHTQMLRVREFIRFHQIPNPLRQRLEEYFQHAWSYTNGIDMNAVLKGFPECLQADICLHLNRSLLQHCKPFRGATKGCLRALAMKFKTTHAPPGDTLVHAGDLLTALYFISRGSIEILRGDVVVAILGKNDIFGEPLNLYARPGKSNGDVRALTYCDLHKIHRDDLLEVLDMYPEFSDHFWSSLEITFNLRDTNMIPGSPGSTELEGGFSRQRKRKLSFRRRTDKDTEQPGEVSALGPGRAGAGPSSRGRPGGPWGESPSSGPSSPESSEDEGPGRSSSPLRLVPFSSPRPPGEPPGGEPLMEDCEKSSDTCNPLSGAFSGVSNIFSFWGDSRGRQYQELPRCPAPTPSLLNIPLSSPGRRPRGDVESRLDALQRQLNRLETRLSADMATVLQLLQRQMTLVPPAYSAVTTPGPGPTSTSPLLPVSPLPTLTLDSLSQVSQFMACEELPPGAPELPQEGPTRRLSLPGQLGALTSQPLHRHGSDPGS

Structure (SMILES)	hERG current change (%, negative = inhibition) at 1uM
Cc1ccc2nc(-c3cccc(NC(=O)c4ccco4)c3)[nH]c2c1	3.16%
COc1ccc(Cl)cc1N(C(=O)c1ccco1)C(C(=O)NC1CCCC1)c1ccco1 (stereo not drawn)	9.81%
O=C(CSc1nnc(Cc2cccs2)n1-c1ccccc1)Nc1ccc2c(c1)OCCO2	5.05%
O=c1nc2ccccc2c2n1CC(CN1CCN(c3cccc(Cl)c3)CC1)N2 (stereo not drawn)	-38.9%
CCOC(=O)N(Cc1ccccc1)Cc1ccc(C(=O)N[C@@H](Cc2ccccc2)C(=O)O)cc1	12.8%
O=C(CSc1nnc(-c2cccs2)n1-c1ccccc1)N1CCCC1	-4%
CC(OC(=O)CCC1CCCCC1)C(=O)Nc1ccc(S(N)(=O)=O)cc1 (stereo not drawn)	9.83%
CC(=O)Nc1ccc(C2CC(c3ccc(Cl)cc3)=NN2c2ccccc2)cc1 (stereo not drawn)	0.669%
CC(=O)/C(=C/N(C)C)Sc1ccc(C)cc1	12.7%
O=C(Nc1ccc2c(c1)OCCO2)C1CCN(S(=O)(=O)c2cccs2)CC1	-9.01%
O=C(NCc1ccccn1)[C@@H]1C[C@H]1[C@@H](NP(=O)(c1ccccc1)c1ccccc1)c1ccccc1	8.94%
NC(=O)C1CCN(C(=O)c2cccc(S(=O)(=O)N3CCc4ccccc4C3)c2)CC1	8.76%
O=C(c1ccncc1)c1ccc([N+](=O)[O-])cc1	12.9%
C=CCSc1nnc(CNS(=O)(=O)c2ccc(C)cc2)n1C	5.39%
CCOC(=O)C1=C(C)N=C2SC=C(C)N2C1c1ccc(OC)cc1.Cl (stereo not drawn)	0.846%
CC1=C(C)C(=O)N(c2ccc(C(=O)O)cc2)C1=O	5.87%
C=CCn1c(SCc2csc(C)n2)nc2sc3c(c2c1=O)CCC(C)C3 (stereo not drawn)	18.8%
CC1(C)NC(=O)N(CC(O)Cn2nnc3ccccc32)C1=O.Cl (stereo not drawn)	5.34%
O=c1c(Cl)c(Cl)cnn1Cc1ccccc1Cl	6.3%
CC1CN(/C=C/C(=O)C(F)(F)F)CC(C)O1 (stereo not drawn)	12.9%
COCCCNC(=S)NNC(=O)c1ccc2c(c1)OCO2	-0.487%
CCOc1ccc(NC(=O)CSc2ncnc3c2sc2ccccc23)cc1	9.47%
Cc1nc(SCc2ccc(F)cc2)n[nH]1	14.5%

Structure (SMILES)	hERG current change (%, negative = inhibition) at 1uM
CCOc1ccccc1C(=O)Nc1nnc(C(C)C)s1	8.15%
C[C@H](NC(=O)C1CC(=O)N(c2ccc3c(c2)OCCO3)C1)C(=O)N1CCC(C(=O)O)CC1 (stereo partly drawn)	15.3%
COc1cccc(C2C(C(C)=O)=C(C)Nc3ncnn32)c1 (stereo not drawn)	-0.273%
CCn1c(=O)c(C(=O)NNC(=O)Cc2ccccc2)c(O)c2ccccc21	15%
O=C(Nc1ccn(CC(=O)N2CCN(c3ccccn3)CC2)c(=O)n1)OCc1ccccc1	10.2%
CSc1cc(C)c(OCC(=O)Nc2c(C)nn(C)c2C)c(C)c1	1.26%
COc1ccc(C)cc1-n1cnnn1	14.4%
CCC(CC)c1nnc(NC(=O)c2ccc(N3CCCCC3)c([N+](=O)[O-])c2)s1	-9.23%
COCC(=O)N1CCCC(CNS(=O)(=O)c2ccc(OC)cc2)C1 (stereo not drawn)	17.2%
Cc1ccc(C(=O)Nc2ccc(N3CCN(C(=O)c4cccs4)CC3)cc2)c(Cl)c1	5.07%
COC(=O)c1c(C)nsc1NC(=O)Oc1ccccc1	14.3%
O/N=C/c1ccccc1OCc1ccccc1Cl	10.2%
Cc1cc(C)nc(SCNC(=O)c2ccc(Cl)cc2)n1	20.2%
CCOc1cc(/C=N/NC(=O)c2cccnc2)cc(Br)c1OCC(N)=O	-69.4%
O=C(NCc1ccccc1)c1cc2ccccc2oc1=O	11%
O=C(NC(=S)NNC(=O)c1ccccc1O)c1cccs1	12.5%
COc1c(C)cc(S(=O)(=O)N2CCCC2)c(C)c1C	-0.179%
Cn1c(-c2c(N)n(CCc3ccccc3)c3nc4ccccc4nc23)nc2ccccc21	3.68%
O=C(/C=C\c1ccccc1)Oc1cccc2cccnc12	9.02%
CCN(CC)C(=O)Oc1c(Cl)cc(Cl)c2cccnc12	7.57%
Cc1ccc(CNC(=O)CC2(CC3=NS(=O)(=O)c4ccccc4N3)CCCC2)cc1	8.2%
CC(C)(C)c1ccc(C(=O)N2CCCC2)s1	14.4%
